The other results are listed elsewhere or left out.
target: T1, OsWOX13 (Oryza sativa, UniProt Q5QMM3 1-267); assay: protein-binding microarray (RPBM); PBS, 2% BSA, 51.3 ng/ul salmon testes DNA, 50 uM zinc acetate, 200 nM TF, 25 C, 1 h; high values mean tight binding; conditions: protein: recombinant; tags: N-terminal polyhistidine and DsRed monomer fusion (pET32a); label: CyDye5-dUTP incorporated in the synthesized complementary strand; 3' TTTTT single-stranded linker to array surface; dsDNA, one strand shown
T1 sequence: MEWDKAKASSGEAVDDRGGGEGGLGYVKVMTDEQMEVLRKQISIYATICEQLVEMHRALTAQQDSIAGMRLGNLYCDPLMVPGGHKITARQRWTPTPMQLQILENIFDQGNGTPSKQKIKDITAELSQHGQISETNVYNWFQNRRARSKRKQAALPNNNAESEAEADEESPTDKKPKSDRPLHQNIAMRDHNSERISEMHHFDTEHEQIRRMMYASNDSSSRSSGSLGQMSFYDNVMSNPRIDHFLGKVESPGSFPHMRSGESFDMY
In short: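 An Axon 4000B scanner gave the binding signal as per-feature fluorescence intensity in arbitrary units. This followed washing of a custom Agilent array that had been incubated for 1 h at 25 °C with 200 nM protein in PBS, 2% BSA, salmon testes DNA and 50 µM zinc acetate. The proteins were transcription factors fused at the N-terminus to polyhistidine and DsRed, expressed in E. coli BL21-CodonPlus and purified on Ni–NTA.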

Row | Sequence | binding signal
1 | CTAAATTAAACTGGTCCGGAATAAGTTTTGTGACAAAGTTCGGAGTCACCTAGTGCAG | 32500 fluorescence intensity (a.u.)
2 | CATAATTCGTAAATTTACAACTACCAAATCAAATGCAAGCCGGAGTCACCTAGTGCAG | 8180 fluorescence intensity (a.u.)
3 | ATGCAATCCAATTACCAATCTGATCGTGATGTTGCGTTTGCGGAGTCACCTAGTGCAG | 15200 fluorescence intensity (a.u.)
4 | CATGTCTAGATTTATTAACATCAATATAAATATGAAAATGCGGAGTCACCTAGTGCAG | 3200 fluorescence intensity (a.u.)
5 | CTAAAATTTAAAATTTTAGTTTATAAGAATAAGTATAAGACGGAGTCACCTAGTGCAG | 4900 fluorescence intensity (a.u.)
6 | CCTACATTAGTAGTTTAATTGTAGAGGACCTGGATCCTTACGGAGTCACCTAGTGCAG | 3500 fluorescence intensity (a.u.)
7 | TAAACTGAATGTAATATTTTGGCAGTTAAATAGTTCACACCGGAGTCACCTAGTGCAG | 3480 fluorescence intensity (a.u.)
8 | AAGATTTAAACTTTGAAGTCAAATTTTGAAATCTTTCAACCGGAGTCACCTAGTGCAG | 4070 fluorescence intensity (a.u.)
9 | ATCCATTCATTGATAGTGTGGTTTTGTGAAACTAAACTACCGGAGTCACCTAGTGCAG | 3240 fluorescence intensity (a.u.)
10 | CTTCTAATTGGAGTAGTGAGTTCCCTACCATTGACGCAATCGGAGTCACCTAGTGCAG | 20700 fluorescence intensity (a.u.)
11 | TTCAATCAACCAGTATGTTTCCTATGCCATGCCATGCAAACGGAGTCACCTAGTGCAG | 4440 fluorescence intensity (a.u.)
12 | GTCTTGATGGCGTTTGTTGAATTGGCTATACAATCTGCTGCGGAGTCACCTAGTGCAG | 6560 fluorescence intensity (a.u.)
13 | TACAAATAGACAAATTGTAATGACATATTTTAAAACTGAACGGAGTCACCTAGTGCAG | 25200 fluorescence intensity (a.u.)
14 | AATAATTGCATCAGAAAATTAAGATCGTGCGTGATAATTACGGAGTCACCTAGTGCAG | 13400 fluorescence intensity (a.u.)
15 | GTTCATAATCTACAGCAAATTACTTCCCCTGAATTTTAATCGGAGTCACCTAGTGCAG | 4350 fluorescence intensity (a.u.)
16 | GTTTGACATGCAGACTTGATTCTATCACCTATAGCATCTGCGGAGTCACCTAGTGCAG | 8550 fluorescence intensity (a.u.)
17 | AATTAATGTGATAAATTTTCATGCACCAAGAGTGTACTCCCGGAGTCACCTAGTGCAG | 15200 fluorescence intensity (a.u.)
18 | GACAAATTATGGCATTTTAAAATCCAAAATATGGAAAGGGCGGAGTCACCTAGTGCAG | 14600 fluorescence intensity (a.u.)
19 | GCCGTCAATGACAGATGCAGATTCTCTGGAGGAAGGCACACGGAGTCACCTAGTGCAG | 5060 fluorescence intensity (a.u.)
20 | TCAAATTTGAGTCCTCATCAGTGCTCATCAATAAGTTATTCGGAGTCACCTAGTGCAG | 3920 fluorescence intensity (a.u.)
21 | GGAGATTGGACCCCGCCGCATCTCCACGTCTCCTTCCGCCCGGAGTCACCTAGTGCAG | 14200 fluorescence intensity (a.u.)
22 | CATAAATGTCAATTTTGCTAGCCATTAGACTCAACATGCACGGAGTCACCTAGTGCAG | 17600 fluorescence intensity (a.u.)
23 | GGTGATGTTAAATTATAGTGGTTTAAAATTTTAAATTTCACGGAGTCACCTAGTGCAG | 10800 fluorescence intensity (a.u.)
24 | GGCAATGCATGATTAGCCCATCAGGAAATATATTTACAAACGGAGTCACCTAGTGCAG | 4200 fluorescence intensity (a.u.)
25 | ATACAATAACAATCATATTTATCATTTCCTTTGCTCCGAACGGAGTCACCTAGTGCAG | 3250 fluorescence intensity (a.u.)
26 | AGCTAGTAATAATTAGTTTAAATAAACTAGCTAGTAATTACGGAGTCACCTAGTGCAG | 8160 fluorescence intensity (a.u.)
27 | GTAACAATCATGTGTAATTTGCAGAAACCAAATCCATTTTCGGAGTCACCTAGTGCAG | 12300 fluorescence intensity (a.u.)

Row | Sequence | binding signal
28 | AGTTTTAATTTCCTCGTCTTTGCATATATGGAAGGAACCGCGGAGTCACCTAGTGCAG | 3560 fluorescence intensity (a.u.)
29 | TCACTGACTGATAAGTCGATCCCACCCACATCCGCGCTGACGGAGTCACCTAGTGCAG | 12000 fluorescence intensity (a.u.)
30 | ATAAAACTAATTGCATAAATAAGAGCTAATTCGTGAGATACGGAGTCACCTAGTGCAG | 15500 fluorescence intensity (a.u.)
31 | AATATAATTACATTGTGATTGTACTATATTTATATTTGTTCGGAGTCACCTAGTGCAG | 49400 fluorescence intensity (a.u.)
32 | AGCACCGATTAGCAATTACCCCTCCCACGAGGCAGAGACGCGGAGTCACCTAGTGCAG | 6460 fluorescence intensity (a.u.)
33 | TCTAGATTTTATATAACTTCTAACTACCTAAATCAAACGGCGGAGTCACCTAGTGCAG | 4660 fluorescence intensity (a.u.)
34 | CATATAGATTTATTTTCAGAAAATAGGACTTACATTTTGACGGAGTCACCTAGTGCAG | 3290 fluorescence intensity (a.u.)
35 | TCCCCTCTGATTAATTAATTAATTAATTAATTAGCTAAAACGGAGTCACCTAGTGCAG | 65500 fluorescence intensity (a.u.)
36 | ATAGACTGATAGATACATGCAATGCAGCCAAAGCGGAGCACGGAGTCACCTAGTGCAG | 31600 fluorescence intensity (a.u.)
37 | CCTAATTAATCCATCATTAGCACATGTGGGTTACTGTAACCGGAGTCACCTAGTGCAG | 49900 fluorescence intensity (a.u.)
38 | ACCTCTGATTGCGTCATTCCATTTCCATGGATTGCTCGATCGGAGTCACCTAGTGCAG | 41200 fluorescence intensity (a.u.)
39 | GAGGGAGTACTAATTATTTAATTTGATGATTATAATACTTCGGAGTCACCTAGTGCAG | 17900 fluorescence intensity (a.u.)
40 | GTGGTAGTTTGTAATAATTGGTTGTAGCTCTTTTAAGCACCGGAGTCACCTAGTGCAG | 5870 fluorescence intensity (a.u.)
41 | ATGAATTTCGTTTCAATCAACGATGTGAATTGTAGGTAACCGGAGTCACCTAGTGCAG | 34800 fluorescence intensity (a.u.)
42 | AGTTAATTGTCTACATGCATACATGTCTTATATTATGGAACGGAGTCACCTAGTGCAG | 30900 fluorescence intensity (a.u.)
43 | TTTGCAATCAATTAGAGGAGGAAATACATGGGAGAAGCAGCGGAGTCACCTAGTGCAG | 27200 fluorescence intensity (a.u.)
44 | AGAGATTTAAACTTGTATTAATTTAATGAGGTTTATAGAGCGGAGTCACCTAGTGCAG | 6320 fluorescence intensity (a.u.)
45 | CTAATTGACATATCCAAAACTTTGGTATAAATAATTACCACGGAGTCACCTAGTGCAG | 31400 fluorescence intensity (a.u.)
46 | TTTTGATAGGATGTCTATTCAGATTTATTTTAATATGTCACGGAGTCACCTAGTGCAG | 16300 fluorescence intensity (a.u.)
47 | GCAACGACGTCTCCCTGATTAGCGTGGAGACTGTGGGAGGCGGAGTCACCTAGTGCAG | 5240 fluorescence intensity (a.u.)
48 | AACTTTTACAAAATTTGTGAACATTTATTTCCCATATGAACGGAGTCACCTAGTGCAG | 3270 fluorescence intensity (a.u.)
49 | CCAGTTAAACTGGAATGAGGAAACTAGCCGCAATGCGTAACGGAGTCACCTAGTGCAG | 4710 fluorescence intensity (a.u.)
50 | CCTCCTGATTGCTGCGGTTTGCGCCAAAATCTCCTCGCCCCGGAGTCACCTAGTGCAG | 30900 fluorescence intensity (a.u.)
51 | TGTTAACTTTATTGTATCAGCAATCAAGTTATCAAGACAACGGAGTCACCTAGTGCAG | 3170 fluorescence intensity (a.u.)
52 | ACGCTTTCCTGTGCTCTTTCTCGGTTATTAATATTTTCTCCGGAGTCACCTAGTGCAG | 3260 fluorescence intensity (a.u.)
53 | AACTTCATTACATTTGATTGGTGGCATCTTTACTACCACTCGGAGTCACCTAGTGCAG | 17700 fluorescence intensity (a.u.)
54 | GATCAAACAAATTTATGGGGCGTAGAAGGGATTGGGTGAACGGAGTCACCTAGTGCAG | 3760 fluorescence intensity (a.u.)

From paper PMC7819943, “Rice protein-binding microarrays: a tool to detect cis-acting elements near promoter regions in rice”
